{
  "source": "PubChem BioAssay (NCATS)",
  "key": {"[1]": {"assay": "Viability qHTS for spleen associated tyrosine kinase inhibitor (SYKi) naive MV4-11 cells (AID 1963823); also: nearly all actives have a fitted effect of over 40% in size", "settings": "MV4-11 AML viability, CellTiter-Glo luminescence, 72 h; series mostly up to 45 µM", "outline": "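qHTS, SYK inhibitor-naive MV4-11; 500 cells/well; 72 hr compound exposure, 37 C; CellTiter-Glo added, 10 min RT; luminescence read.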"}, "[2]": {"assay": "Quantitative highthroughput screen to assess conditional lethalithy of NOMO1 cells grown in Human Plasma-Like Medium with dialyzed fetal bovine serum (HPLM+ds) (AID 1963878); also: nearly all actives have a fitted effect of over 35% in size", "settings": "NOMO1 AML cells in HPLM+ds, CellTiter-Glo viability, 48 h; viability: at 45.8 µM (top of the series)", "outline": "(§1)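 Each medium arm—HPLM with 10% dialyzed FBS, or RPMI1640 with 5 mM glucose and 10% untreated or dialyzed FBS—was screened against an 11-point, 3-fold compound titration for 48 h at 37 °C, with CellTiter-Glo luminescence as endpoint.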"}, "[3]": {"assay": "Quantitative highthroughput screen to assess conditional lethalithy of P12 Ichikawa cells grown in Human Plasma-Like Medium with dialyzed fetal bovine serum (HPLM+ds) (AID 1963879)", "settings": "Potency: viability", "outline": "as §1"}, "[4]": {"assay": "Quantitative highthroughput screen to assess conditional lethalithy of SEM cells grown in RPMI1640 with dialyzed fetal bovine serum (RPMI+ds) (AID 1963884)", "settings": "SEM B-ALL cells, RPMI+dialyzed FBS, CellTiter-Glo viability, 48 h; viability: at 45.8 µM (top of the series)", "outline": "as §1"}, "[5]": {"assay": "Cellular viability qHTS for adrenocortical cancer (ACC) cell line SW-13 (AID 1963989)", "settings": "SW-13 ACC cells viability, CellTiter-Glo, 48 h; activity (max response): stronger effect = lower value", "outline": "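Viability was read as CellTiter-Glo luminescence after 48 h compound treatment (up to 46 uM final) of SW-13 cells grown serum-free; titration curves were fit with a four-parameter logistic model to give IC50 and efficacy.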"}, "[6]": {"assay": "Quantitative highthroughput screen to assess conditional lethalithy of P12 Ichikawa cells grown in RPMI1640 with dialyzed fetal bovine serum (RPMI+ds) (AID 1963880)", "settings": "Potency: P12-Ichikawa viability", "outline": "as §1"}, "[7]": {"assay": "Quantitative highthroughput screen to assess conditional lethalithy of P12 Ichikawa cells grown in RPMI1640 with untreated serum (RPMI+s) (AID 1963881)", "settings": "Potency: viability", "outline": "as §1"}, "[8]": {"assay": "Quantitative highthroughput screen to assess conditional lethalithy of SEM cells grown in RPMI1640 with unreated serum (RPMI+s) (AID 1963883)", "settings": "SEM B-ALL cells, CellTiter-Glo viability, 48 h; viability: at 45.8 µM (top of the series)", "outline": "as §1"}},
  "note": "Several values for one entry are separate records, joined by “and”; a condition that tells them apart may be missing. Equal entries are not always repeated. The shares of active, inactive and inconclusive entries below differ from those in the screen. Where the call is inconclusive, the potency comes from a doubtful curve fit. Activity calls are given as the source filed them. Calls follow the shape of the dose curve; as a rule, active = well fitted curve in the direction sought with a large enough effect; inconclusive = small, poorly fitted or top-dose-only effect, or another doubt; inactive = no such curve, though single readings can be large; an effect the other way counts as inactive or inconclusive. For Viability in this document: nearly all actives have a fitted effect of over 35% in size. Potency is read from the fitted curve at half-maximal effect; tags tell the direction and shape of the fitted curve.",
  "data": [
    {"smiles": "O=C1NC(=O)C(c2cnc3ccccn23)=C1c1cn2c3c(cc(F)cc13)CN(C(=O)N1CCCCC1)CC2", "values": [
      {"measurement": "Potency", "setting": "[1]", "result": "active: 231 nM and active: 833 nM"},
      {"measurement": "Potency", "setting": "[2]", "result": "inconclusive: 0.0021 µM [rising, full curve, poor fit]"},
      {"measurement": "Potency", "setting": "[3]", "result": "active: 0.588 µM"},
      {"measurement": "Potency", "setting": "[4]", "result": "active: 0.0166 µM"},
      {"measurement": "Potency", "setting": "[5]", "result": "inconclusive: 31.6 µM [cytotoxic, single point]"}
    ]},
    {"smiles": "O=C(Nc1ccccc1Br)N[C@@H]1CCN(c2ccc(C(F)(F)F)cn2)C1", "values": [
      {"measurement": "Potency", "setting": "[1]", "result": "active: 14.8 µM"},
      {"measurement": "Potency", "setting": "[2]", "result": "inactive"},
      {"measurement": "Potency", "setting": "[6]", "result": "inactive"},
      {"measurement": "Potency", "setting": "[7]", "result": "inconclusive: 26.4 µM [cytotoxic, partial curve, poor fit]"},
      {"measurement": "Potency", "setting": "[4]", "result": "inactive"},
      {"measurement": "Potency", "setting": "[5]", "result": "inconclusive: 28.2 µM [cytotoxic, partial curve]"}
    ]},
    {"smiles": "CC(C)n1cnc2c(NCCCCCCNC(=O)OC(C)(C)C)nc(NCCO)nc21", "values": [
      {"measurement": "Potency", "setting": "[1]", "result": "inconclusive: 8.33 µM [cytotoxic, partial curve]"},
      {"measurement": "Potency", "setting": "[2]", "result": "inactive"},
      {"measurement": "Potency", "setting": "[3]", "result": "inconclusive: 37.2 µM [cytotoxic, partial curve, poor fit]"},
      {"measurement": "Potency", "setting": "[6]", "result": "inconclusive: 23.5 µM [cytotoxic, single point]"},
      {"measurement": "Potency", "setting": "[7]", "result": "inconclusive: 23.5 µM [cytotoxic, single point]"},
      {"measurement": "Potency", "setting": "[8]", "result": "inconclusive: 37.2 µM [cytotoxic, single point]"},
      {"measurement": "Potency", "setting": "[4]", "result": "inconclusive: 20.9 µM [cytotoxic, partial curve, poor fit]"},
      {"measurement": "Potency", "setting": "[5]", "result": "inconclusive: 22.4 µM [cytotoxic, single point]"}
    ]},
    {"smiles": "CNC(=O)c1ccc(Nc2ncc(C(F)(F)F)c(NCc3nccnc3N(C)S(C)(=O)=O)n2)cc1", "values": [
      {"measurement": "Potency", "setting": "[1]", "result": "active: 130 nM and active: 332 nM"},
      {"measurement": "Potency", "setting": "[2]", "result": "inconclusive: 13.2 µM [cytotoxic, partial curve, poor fit]"},
      {"measurement": "Potency", "setting": "[3]", "result": "inactive"},
      {"measurement": "Potency", "setting": "[8]", "result": "active: 1.05 µM"},
      {"measurement": "Potency", "setting": "[5]", "result": "inconclusive: 22.4 µM [cytotoxic, single point]"}
    ]}
  ]
}
